According to paper PMC4336329 (PLoS ONE, 2015):
Among all 310,000 compounds or so, about 2,200 (0.71%) showed an effect of 50% or more. Effects have a minus sign here. Some of the results follow.

What follows are compounds tested against human ether-à-go-go-related gene (hERG) potassium channel (human, UniProt Q12809) (assay: primary screen, population patch clamp on CHO cells stably expressing hERG).
Sequence of human ether-à-go-go-related gene (hERG) potassium channel (Q12809 whole entry, looked up): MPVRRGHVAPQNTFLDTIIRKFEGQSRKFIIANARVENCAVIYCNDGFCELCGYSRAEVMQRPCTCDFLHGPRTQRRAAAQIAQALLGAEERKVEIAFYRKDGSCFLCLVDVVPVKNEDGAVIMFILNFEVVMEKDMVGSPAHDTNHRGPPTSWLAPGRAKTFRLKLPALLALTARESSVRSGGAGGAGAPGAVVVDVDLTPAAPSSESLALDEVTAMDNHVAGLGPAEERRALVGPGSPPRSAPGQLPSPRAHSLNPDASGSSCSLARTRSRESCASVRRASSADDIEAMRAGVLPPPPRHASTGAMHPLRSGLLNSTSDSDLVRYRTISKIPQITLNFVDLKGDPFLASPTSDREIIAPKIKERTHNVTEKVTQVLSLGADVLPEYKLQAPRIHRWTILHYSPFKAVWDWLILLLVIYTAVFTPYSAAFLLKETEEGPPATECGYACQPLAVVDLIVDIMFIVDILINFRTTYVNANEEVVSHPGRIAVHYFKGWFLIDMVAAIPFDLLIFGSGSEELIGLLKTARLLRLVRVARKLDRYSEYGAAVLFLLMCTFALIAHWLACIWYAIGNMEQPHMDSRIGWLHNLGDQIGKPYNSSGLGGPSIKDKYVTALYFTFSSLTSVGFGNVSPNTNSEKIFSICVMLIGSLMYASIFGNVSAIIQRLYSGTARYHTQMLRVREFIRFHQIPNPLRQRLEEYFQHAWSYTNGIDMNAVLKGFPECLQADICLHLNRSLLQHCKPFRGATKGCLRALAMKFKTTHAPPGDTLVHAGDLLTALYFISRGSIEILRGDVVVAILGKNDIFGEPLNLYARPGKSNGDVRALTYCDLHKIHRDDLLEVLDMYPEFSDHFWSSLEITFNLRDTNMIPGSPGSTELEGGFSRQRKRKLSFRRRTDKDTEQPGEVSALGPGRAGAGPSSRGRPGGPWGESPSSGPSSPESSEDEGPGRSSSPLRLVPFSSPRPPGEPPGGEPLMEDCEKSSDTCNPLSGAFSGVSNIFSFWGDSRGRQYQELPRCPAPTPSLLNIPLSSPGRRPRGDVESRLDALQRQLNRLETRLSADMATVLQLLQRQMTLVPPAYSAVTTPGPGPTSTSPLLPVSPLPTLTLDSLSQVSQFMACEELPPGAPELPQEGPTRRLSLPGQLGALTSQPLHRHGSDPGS

| Compound | hERG current change (%, negative = inhibition) at 1uM [%] |
| --- | --- |
| Cc1cccc(C(C)C)c1NC(=O)c1c(-c2ccccc2)noc1C | 18.1 |
| CCOC(=O)c1c(C)nc(C(Cl)(Cl)Cl)nc1N | 3.58 |
| O=c1[nH]c(=S)n(C2CC2)c(O)c1C=NCC1CCCO1 (stereo not drawn) | 4.61 |
| Cc1ccc(C)c(S(=O)(=O)NCCN2CCOCC2)c1.Cl | 8.25 |
| c1ccc(-n2nnnc2Sc2n[nH]c(-c3ccncc3)n2)cc1 | -11.8 |
| CCCc1nc(S(=O)(=O)Cc2ccc(Cl)cc2Cl)n[nH]1 | 7.72 |
| CCn1nc(C(=O)N2CCc3ccccc32)c2ccccc2c1=O | 13.4 |
| c1ccc(N2CCN(c3ccccc3)C2c2cccs2)cc1 | 7.66 |
| CC(C)c1nc2cc(C(=O)N(C)C3CCOCC3)ccc2o1 | 7.18 |
| CC1CCN(C(c2ccc(N(C)C)cc2)c2nnnn2Cc2ccc(F)cc2)CC1 (stereo not drawn) | 13 |
| Cc1cccc(N2C(=O)CC(Sc3ccccc3C(=O)O)C2=O)c1 (stereo not drawn) | 13.4 |
| COCCC(=O)N1CCC(Oc2ccc(C(=O)N(C)C(C)c3ccon3)cc2)CC1 (stereo not drawn) | 10.5 |
| CCCCCCCCn1sccc1=O | 3.4 |
| NC(=O)C1CCN(c2oc(/C=C/c3ccc(F)cc3)nc2S(=O)(=O)c2ccccc2)CC1 | 3.33 |
| O=C(O)CCC(=O)N1CCN(c2nc(-c3ccccc3)c3cc(Br)ccc3n2)CC1 | 7.25 |
| CC(C)(CO)NC(=O)c1ccc2nc(Cc3cccc(Cl)c3)oc2c1 | 10.6 |
| CCOc1ccc(-n2c(SCC(=O)Nc3nccs3)nnc2-c2ccoc2C)cc1 | -35.1 |
| CC(C)n1cnnc1SCC(=O)Nc1ccc(N2CCCCC2)cc1 | 18 |
| CCC(CC)Nc1ccc(C(CC(N)=O)NC(=O)Cc2ccc(Br)cc2)cc1[N+](=O)[O-] (stereo not drawn) | 3.24 |
| CCOc1ccc(N=C(/C(C(=O)C(=O)N2CCOCC2)=C(\O)c2ccccc2)c2ccccc2)cc1 | 18.4 |
| C=CCn1c(O)c(CN2CCOCC2)c(C)c(C#N)c1=O | 10.4 |
| CCc1ccc(C(=O)/C=C/Nc2ccc(S(=O)(=O)Nc3cnc4ccccc4n3)cc2)cc1 | 16 |
| Cl.O=C(Oc1cccnc1)c1ccco1 | 4.52 |

| Compound | hERG current change (%, negative = inhibition) at 1uM [%] |
| --- | --- |
| COc1ccccc1CCNC1C2CC3CC(C2)CC1C3 (stereo not drawn) | -2.24 |
| Cc1cc(C)c(S(=O)(=O)N2CCOC2CNC(=O)C(=O)NCCc2ccc(S(N)(=O)=O)cc2)c(C)c1 (stereo not drawn) | -8.68 |
| O=C(NC(=S)NCCC1=CCCCC1)c1ccc(Br)o1 | 15.9 |
| CCS(=O)(=O)N1CCCC(C(=O)NCC2CCCO2)C1 (stereo not drawn) | 13.2 |
| CCOC(=O)C1=C(C)N=C2SC(C)C(=O)N2C1c1ccc(C(=O)OC)cc1 (stereo not drawn) | 1.25 |
| CCOC(=O)/C(C(N)=NC(C)C)=C(\O)c1ccccc1 | 8.52 |
| CCOC(=O)CNc1nc(Cl)nc(Nc2ccc(Cl)cc2)n1 | 13.1 |
| CSc1ccc(/C=C(\NC(=O)c2ccccc2)C(=O)NCCN2CCOCC2)cc1 | -44.3 |
| CCCCc1c(O)n2c(nc3ccccc32)[nH]c1=O | 15.9 |
| C=CCN(c1cccc(C(F)(F)F)c1)S(=O)(=O)c1cccc(C(=O)OCC(=O)NCCC)c1 | 8.97 |
| Cc1ccn(CC(=O)N2CCCC(N3CCN(c4cccc(Cl)c4)CC3)C2)n1 (stereo not drawn) | 4.88 |
| COC(=O)[C@@H](Cc1ccc(O)cc1)NC(=O)[C@H]1CCC(=O)N1C(=O)OCc1ccccc1 | 4.43 |
| CCn1c(CSc2nc3ccccc3s2)nnc1SCC(=O)c1ccc(Cl)cc1 | 8.76 |
| O=C(c1ccccc1F)N(Cc1ccc2c(c1)OCO2)Cc1cc2cc3c(cc2n2nnnc12)OCO3 | -0.352 |
| O=C(Nc1ccccc1C(=O)N1CCNCC1)c1ccco1 | 2.27 |
| CC1CCCCN1CCCNC(=O)c1cc(Br)c(Br)[nH]1 (stereo not drawn) | -42.1 |
| CO/N=C/C(C#N)=C/c1ccc(OC)cc1 | 15.4 |
| CCCCNC(=O)Cn1cnc2sc(C)c(S(=O)(=O)N3CCN(c4ccccc4OC)CC3)c2c1=O | 15 |
| Cc1cc(OCC(=O)N(Cc2ccco2)C2CCS(=O)(=O)C2)cc(C)c1Cl (stereo not drawn) | 7.06 |
| CC(=O)Nc1ccccc1Sc1ccc2c3c(cccc13)C(=O)N(c1ccc(C)cc1)C2=O | 9.83 |
| O=C1CCC(C(=O)N2CCOCC2)CN1Cc1cccc(C(F)(F)F)c1 (stereo not drawn) | 12.8 |
| Cc1nn(Cc2ccccc2)c2c1C(c1ccco1)C(C#N)=C(N)O2 (stereo not drawn) | 6.11 |
